Measurements from article PMC4336329 (PLoS ONE, 2015).
Screen size: about 310,000 compounds; about 2,200 (0.71%) showed an effect of 50% or more. Effects have a minus sign here. This is one part of the list.

Each compound was assayed against human ether-à-go-go-related gene (hERG) potassium channel (human, UniProt Q12809) (assay: primary screen, population patch clamp on CHO cells stably expressing hERG).
Chain of human ether-à-go-go-related gene (hERG) potassium channel (Q12809 whole entry, looked up): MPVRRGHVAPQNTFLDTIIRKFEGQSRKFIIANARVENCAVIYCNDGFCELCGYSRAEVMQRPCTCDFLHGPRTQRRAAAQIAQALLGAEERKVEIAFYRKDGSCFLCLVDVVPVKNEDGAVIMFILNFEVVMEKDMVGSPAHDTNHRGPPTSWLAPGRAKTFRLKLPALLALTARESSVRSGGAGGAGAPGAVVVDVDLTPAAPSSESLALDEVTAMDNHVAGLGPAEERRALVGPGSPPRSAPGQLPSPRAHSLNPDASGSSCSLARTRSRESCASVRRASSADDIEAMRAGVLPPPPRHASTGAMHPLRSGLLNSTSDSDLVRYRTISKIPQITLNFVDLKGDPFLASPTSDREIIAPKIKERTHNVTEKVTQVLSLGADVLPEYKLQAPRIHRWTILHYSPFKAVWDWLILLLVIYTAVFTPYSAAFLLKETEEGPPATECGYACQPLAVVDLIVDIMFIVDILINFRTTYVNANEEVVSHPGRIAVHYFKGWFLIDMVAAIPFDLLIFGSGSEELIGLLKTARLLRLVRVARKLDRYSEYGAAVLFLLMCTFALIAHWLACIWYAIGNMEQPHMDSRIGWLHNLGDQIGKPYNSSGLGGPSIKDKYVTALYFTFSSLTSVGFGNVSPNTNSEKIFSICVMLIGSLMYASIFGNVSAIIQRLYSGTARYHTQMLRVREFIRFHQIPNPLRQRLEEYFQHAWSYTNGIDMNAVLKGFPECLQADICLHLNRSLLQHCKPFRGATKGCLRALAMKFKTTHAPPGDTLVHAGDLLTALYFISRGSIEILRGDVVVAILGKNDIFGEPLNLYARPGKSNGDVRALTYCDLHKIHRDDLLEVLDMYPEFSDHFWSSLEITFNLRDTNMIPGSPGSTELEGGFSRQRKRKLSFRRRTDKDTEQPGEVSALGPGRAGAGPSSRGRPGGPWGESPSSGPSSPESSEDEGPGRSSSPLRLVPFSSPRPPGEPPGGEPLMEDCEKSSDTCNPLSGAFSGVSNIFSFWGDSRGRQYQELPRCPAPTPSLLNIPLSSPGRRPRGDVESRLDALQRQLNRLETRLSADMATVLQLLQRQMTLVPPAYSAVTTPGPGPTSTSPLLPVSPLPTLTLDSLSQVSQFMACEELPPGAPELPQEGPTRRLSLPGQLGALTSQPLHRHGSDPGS

In order of rising “hERG current change (%, negative = inhibition) at 1uM” value:
1. CC(=O)N1N=C(c2ccc([N+](=O)[O-])cc2)CC1c1ccccc1Cl (centres unmarked)  -23.7%
2. O=[N+]([O-])c1c(Nc2ccccc2O)cc(N2CCOCC2)c2nonc12  -6.11%
3. CCN1CCc2c(sc(NC(=O)CN3C(=O)c4ccccc4C3=O)c2C(N)=O)C1.Cl  -3.96%
4. CC(Sc1nc(N)c2c3c(sc2n1)CSC(C)(C)C3)C(=O)Nc1ccccc1 (centres unmarked)  -3.24%
5. O=C(NNC(=O)c1ccccc1Cl)c1cc2cc(OC(F)(F)F)ccc2[nH]1  -0.449%
6. CC1(OC(=O)C2CCCC2)C(=O)C=C2C=C(c3ccsc3)OC=C2C1=O (centres unmarked)  1.32%
7. CCOC(=O)C1(Cc2ccc(O)cc2)NC(c2ccco2)C2C(=O)N(c3ccccc3F)C(=O)C21 (centres unmarked)  2.14%
8. Cc1onc(-c2ccccc2)c1C(=O)N1CCCN(C(=O)c2c(-c3ccccc3)noc2C)CC1  3.61%
9. CCOC(=O)N1CCN(Cc2ccccc2F)CC1  4.36%
10. Cc1noc(C)c1C(=O)OCC(=O)Nc1ccccc1Oc1ccccc1  5.73%
11. Cn1cc(C(=O)N2CCOCC2)c2ccccc21  6.4%
12. CCOc1ccc(-n2c(=S)sc3c(=O)[nH]c(SCC(=O)NCc4ccco4)nc32)cc1  6.51%
13. CC(=O)c1ccc(NC(=O)c2ccc([N+](=O)[O-])o2)cc1  6.69%
14. O=C(O)CCNc1cc(N2CCN(C(=O)c3ccco3)CC2)c2noc3c2c1C(=O)c1ccccc1-3  7.29%
15. CCOC(=O)C(C)Sc1nnc(NC(=O)c2ccc(C)c([N+](=O)[O-])c2)s1 (centres unmarked)  8.68%
16. Cc1nn(C)c(Oc2ccc(Cl)cc2)c1C=O  8.9%
17. CN(C)c1ccc([C@@H]2[C@@H]([N+](=O)[O-])[C@H]3C=Cc4ccccc4N3[C@H]2C(=O)c2ccc(Cl)cc2)cc1  9.55%
18. CC1(C)Cc2ccccc2C(C(=O)c2ccccc2)=N1  9.84%
19. CC(Oc1ccc(Cl)cc1Cl)C(=O)NCCCN1CCOCC1 (centres unmarked)  9.88%
20. COc1ccc(/C=C/c2nc3ccccc3n2Cc2ccc(OC)c(OC)c2)cc1  11.5%
21. CCCCNC(=O)c1onc(CCl)c1C(=O)OC  15.7%
22. Cc1ccc(N(CC(=O)Nc2cc(Cl)ccc2Oc2ccccc2)S(C)(=O)=O)cc1C  15.9%
23. CCCN1C(=O)NC2(O)C(=O)c3ccccc3C12O (centres unmarked)  17.5%
